The supplement of paper PMC12217912
Some of the results follow. The full chains were built here from the parent and the listed change. Values near 0.05 are background.

B1: TEV protease; numbered along this chain (parent)
chain: MGESLFKGPRDYNPISSSICHLTNESDGHTTSLYGIGFGPFIITNKHLFRRNNGTLVVQSLHGVFKVKDTTTLQQHLVDGRDMIIIRMPKDFPPFPQKLKFREPQREERICLVTTNFQTKSMSSMVSDTSCTFPSGDGIFWKHWIQTKDGQCGSPLVSTRDGFIVGIHSASNFTNTNNYFTSVPKNFMELLTNQEAQQWVSGWRLNADSVLWGGHKVFMVKPEEPFQPVKEATQL

Variants of: B1
Assay: raw area under fraction-flipped curve 0-4 h after induction (AUC4h, not background-subtracted), DNA-recorder readout of cleavage of the substrate (dimensionless); higher = more cleavage of the substrate by the protease variant
Conditions: temperature: 34 °C; time window: 0-4 h after rhamnose induction
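Also: Bxb1 expression induced with 0.2% (w/v) L-rhamnose at OD600 near 0.5, cultures sampled hourly, flipped fraction per protease–substrate barcode pair counted by paired-end Illumina sequencing.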

Variant | area with substrate ENAYFQS | area with substrate ENDYFQS | area with substrate ENEYFQS | area with substrate ENHYFQS | area with substrate ENNYFQS | area with substrate ENQYFQS | area with substrate ENSYFQS | area with substrate ENTYFQS | area with substrate ENMYFQS | area with substrate ENVYFQS
MGESLFKGPRDYNPISSSICHLTNESDGHTTSLYGIGFGPFIITNKHLFRRNNGTLVVQSLHGVFKVKDTTTLQQHLVDGRDMIIIRMPKDFPPFPQKLKFREPQREERICLVTTNFQTKSMSSMVSDTSCTFPSGDGIFWKHWIQTKDGQCGSPLVSTRDGFIVGIHSASNFTNTNNYFTSVPKNFMELLTNQEAQQSVSGWRLNADSVLWGGHKVFMVKPEEPFQPVKEATQL [W199S] | 0.0899 | 0.0379 | 0.0722 | 0.0689 | 0.0553 | 0.0609 | 0.0639 | 0.0637 | – | –
MGESLFKGPRDYNPISSSICHLTNESDGHTTSLYGIGFGPFIITNKHLFRRNNGTLVVQSLHGVFKVKDTTTLQQHLVDGRDMIIIRMPKDFPPFPQKLKFREPQREERICLVTTNFQTKSMSSMVSDTSCTFPSGDGIFWKHWIQTKDGQCGSPLVSTRDGFIVGIHSASNFTNTNNYFTSVPKNFMELLTNQEAQQYVSGWRLNADSVLWGGHKVFMVKPEEPFQPVKEATQL [W199Y] | 0.0575 | – | – | – | 0.071 | 0.0513 | 0.0746 | 0.0863 | 0.0864 | 0.0636
MGESLFKGPRDYNPISSSICHLTNESDGHTTSLYGIGFGPFIITNKHLFRRNNGTLVVQSLHGVFKVKDTTTLQQHLVDGRDMIIIRMPKDFPPFPQKLKFREPQREERICLVTTNFQTKSMSSMVSDTSCTFPSGDGIFWKHWIQTKDGQCGSPLVSTRDGFIVGIHSASNFTNTNNYFTSVPKNFMELLTNQEAQQWVCGWRLNADSVLWGGHKVFMVKPEEPFQPVKEATQL [S201C] | 0.0518 | – | 0.0511 | 0.0671 | 0.0798 | 0.0657 | – | – | 0.0699 | –
MGESLFKGPRDYNPISSSICHLTNESDGHTTSLYGIGFGPFIITNKHLFRRNNGTLVVQSLHGVFKVKDTTTLQQHLVDGRDMIIIRMPKDFPPFPQKLKFREPQREERICLVTTNFQTKSMSSMVSDTSCTFPSGDGIFWKHWIQTKDGQCGSPLVSTRDGFIVGIHSASNFTNTNNYFTSVPKNFMELLTNQEAQQWVEGWRLNADSVLWGGHKVFMVKPEEPFQPVKEATQL [S201E] | 0.0706 | 0.067 | 0.0528 | – | – | 0.0538 | – | – | 0.0725 | 0.0568
MGESLFKGPRDYNPISSSICHLTNESDGHTTSLYGIGFGPFIITNKHLFRRNNGTLVVQSLHGVFKVKDTTTLQQHLVDGRDMIIIRMPKDFPPFPQKLKFREPQREERICLVTTNFQTKSMSSMVSDTSCTFPSGDGIFWKHWIQTKDGQCGSPLVSTRDGFIVGIHSASNFTNTNNYFTSVPKNFMELLTNQEAQQWVHGWRLNADSVLWGGHKVFMVKPEEPFQPVKEATQL [S201H] | 0.0829 | 0.031 | 0.057 | – | – | – | 0.0604 | – | – | –
MGESLFKGPRDYNPISSSICHLTNESDGHTTSLYGIGFGPFIITNKHLFRRNNGTLVVQSLHGVFKVKDTTTLQQHLVDGRDMIIIRMPKDFPPFPQKLKFREPQREERICLVTTNFQTKSMSSMVSDTSCTFPSGDGIFWKHWIQTKDGQCGSPLVSTRDGFIVGIHSASNFTNTNNYFTSVPKNFMELLTNQEAQQWVQGWRLNADSVLWGGHKVFMVKPEEPFQPVKEATQL [S201Q] | 0.0674 | – | – | – | 0.0686 | – | – | – | – | 0.0885
MGESLFKGPRDYNPISSSICHLTNESDGHTTSLYGIGFGPFIITNKHLFRRNNGTLVVQSLHGVFKVKDTTTLQQHLVDGRDMIIIRMPKDFPPFPQKLKFREPQREERICLVTTNFQTKSMSSMVSDTSCTFPSGDGIFWKHWIQTKDGQCGSPLVSTRDGFIVGIHSASNFTNTNNYFTSVPKNFMELLTNQEAQQWVSIWRLNADSVLWGGHKVFMVKPEEPFQPVKEATQL [G202I] | 0.0583 | 0.056 | – | – | – | 0.028 | 0.069 | 0.0618 | – | –
MGESLFKGPRDYNPISSSICHLTNESDGHTTSLYGIGFGPFIITNKHLFRRNNGTLVVQSLHGVFKVKDTTTLQQHLVDGRDMIIIRMPKDFPPFPQKLKFREPQREERICLVTTNFQTKSMSSMVSDTSCTFPSGDGIFWKHWIQTKDGQCGSPLVSTRDGFIVGIHSASNFTNTNNYFTSVPKNFMELLTNQEAQQWVSGPRLNADSVLWGGHKVFMVKPEEPFQPVKEATQL [W203P] | 0.0599 | 0.0621 | 0.0483 | – | – | 0.0617 | 0.0566 | – | – | –
MGESLFKGPRDYNPISSSICHLTNESDGHTTSLYGIGFGPFIITNKHLFRRNNGTLVVQSLHGVFKVKDTTTLQQHLVDGRDMIIIRMPKDFPPFPQKLKFREPQREERICLVTTNFQTKSMSSMVSDTSCTFPSGDGIFWKHWIQTKDGQCGSPLVSTRDGFIVGIHSASNFTNTNNYFTSVPKNFMELLTNQEAQQWVSGSRLNADSVLWGGHKVFMVKPEEPFQPVKEATQL [W203S] | 0.0515 | – | 0.0676 | 0.0554 | 0.0611 | 0.054 | 0.0647 | 0.0531 | – | –
MGESLFKGPRDYNPISSSICHLTNESDGHTTSLYGIGFGPFIITNKHLFRRNNGTLVVQSLHGVFKVKDTTTLQQHLVDGRDMIIIRMPKDFPPFPQKLKFREPQREERICLVTTNFQTKSMSSMVSDTSCTFPSGDGIFWKHWIQTKDGQCGSPLVSTRDGFIVGIHSASNFTNTNNYFTSVPKNFMELLTNQEAQQWVSGWDLNADSVLWGGHKVFMVKPEEPFQPVKEATQL [R204D] | 0.0503 | 0.0729 | – | 0.0653 | 0.0663 | 0.0648 | 0.0719 | 0.0594 | 0.0773 | 0.105

Same assay, conditions: temperature: 34 °C; time window: 0-4 h after rhamnose induction

Variant | area with substrate ENWYFQS | area with substrate ENCYFQS | area with substrate ENFYFQS | area with substrate ENGYFQS | area with substrate ENIYFQS | area with substrate ENYYFQS | area with substrate ENPYFQS | area with substrate ENKYFQS | area with substrate ENRYFQS
MGESLFKGPRDYNPISSSICHLTNESDGHTTSLYGIGFGPFIITNKHLFRRNNGTLVVQSLHGVFKVKDTTTLQQHLVDGRDMIIIRMPKDFPPFPQKLKFREPQREERICLVTTNFQTKSMSSMVSDTSCTFPSGDGIFWKHWIQTKDGQCGSPLVSTRDGFIVGIHSASNFTNTNNYFTSVPKNFMELLTNQEAQQYVSGWRLNADSVLWGGHKVFMVKPEEPFQPVKEATQL [W199Y] | 0.0689 | – | – | – | – | – | – | – | –
MGESLFKGPRDYNPISSSICHLTNESDGHTTSLYGIGFGPFIITNKHLFRRNNGTLVVQSLHGVFKVKDTTTLQQHLVDGRDMIIIRMPKDFPPFPQKLKFREPQREERICLVTTNFQTKSMSSMVSDTSCTFPSGDGIFWKHWIQTKDGQCGSPLVSTRDGFIVGIHSASNFTNTNNYFTSVPKNFMELLTNQEAQQWVCGWRLNADSVLWGGHKVFMVKPEEPFQPVKEATQL [S201C] | – | 0.062 | 0.0414 | 0.0542 | 0.148 | 0.0734 | – | – | –
MGESLFKGPRDYNPISSSICHLTNESDGHTTSLYGIGFGPFIITNKHLFRRNNGTLVVQSLHGVFKVKDTTTLQQHLVDGRDMIIIRMPKDFPPFPQKLKFREPQREERICLVTTNFQTKSMSSMVSDTSCTFPSGDGIFWKHWIQTKDGQCGSPLVSTRDGFIVGIHSASNFTNTNNYFTSVPKNFMELLTNQEAQQWVEGWRLNADSVLWGGHKVFMVKPEEPFQPVKEATQL [S201E] | – | 0.019 | 0.0152 | – | – | – | 0.0577 | – | –
MGESLFKGPRDYNPISSSICHLTNESDGHTTSLYGIGFGPFIITNKHLFRRNNGTLVVQSLHGVFKVKDTTTLQQHLVDGRDMIIIRMPKDFPPFPQKLKFREPQREERICLVTTNFQTKSMSSMVSDTSCTFPSGDGIFWKHWIQTKDGQCGSPLVSTRDGFIVGIHSASNFTNTNNYFTSVPKNFMELLTNQEAQQWVHGWRLNADSVLWGGHKVFMVKPEEPFQPVKEATQL [S201H] | 0.0655 | 0.0596 | 0.0759 | – | – | – | – | 0.0614 | 0.058
MGESLFKGPRDYNPISSSICHLTNESDGHTTSLYGIGFGPFIITNKHLFRRNNGTLVVQSLHGVFKVKDTTTLQQHLVDGRDMIIIRMPKDFPPFPQKLKFREPQREERICLVTTNFQTKSMSSMVSDTSCTFPSGDGIFWKHWIQTKDGQCGSPLVSTRDGFIVGIHSASNFTNTNNYFTSVPKNFMELLTNQEAQQWVQGWRLNADSVLWGGHKVFMVKPEEPFQPVKEATQL [S201Q] | – | – | – | 0.0521 | 0.0765 | – | – | – | –
MGESLFKGPRDYNPISSSICHLTNESDGHTTSLYGIGFGPFIITNKHLFRRNNGTLVVQSLHGVFKVKDTTTLQQHLVDGRDMIIIRMPKDFPPFPQKLKFREPQREERICLVTTNFQTKSMSSMVSDTSCTFPSGDGIFWKHWIQTKDGQCGSPLVSTRDGFIVGIHSASNFTNTNNYFTSVPKNFMELLTNQEAQQWVSIWRLNADSVLWGGHKVFMVKPEEPFQPVKEATQL [G202I] | – | – | 0.056 | – | 0.0668 | – | – | 0.0802 | 0.0507
MGESLFKGPRDYNPISSSICHLTNESDGHTTSLYGIGFGPFIITNKHLFRRNNGTLVVQSLHGVFKVKDTTTLQQHLVDGRDMIIIRMPKDFPPFPQKLKFREPQREERICLVTTNFQTKSMSSMVSDTSCTFPSGDGIFWKHWIQTKDGQCGSPLVSTRDGFIVGIHSASNFTNTNNYFTSVPKNFMELLTNQEAQQWVSGPRLNADSVLWGGHKVFMVKPEEPFQPVKEATQL [W203P] | – | 0.0378 | – | – | 0.0753 | 0.048 | – | 0.0605 | 0.0553
MGESLFKGPRDYNPISSSICHLTNESDGHTTSLYGIGFGPFIITNKHLFRRNNGTLVVQSLHGVFKVKDTTTLQQHLVDGRDMIIIRMPKDFPPFPQKLKFREPQREERICLVTTNFQTKSMSSMVSDTSCTFPSGDGIFWKHWIQTKDGQCGSPLVSTRDGFIVGIHSASNFTNTNNYFTSVPKNFMELLTNQEAQQWVSGSRLNADSVLWGGHKVFMVKPEEPFQPVKEATQL [W203S] | 0.0434 | 0.0583 | 0.0556 | – | 0.0691 | – | 0.0598 | – | 0.0587
MGESLFKGPRDYNPISSSICHLTNESDGHTTSLYGIGFGPFIITNKHLFRRNNGTLVVQSLHGVFKVKDTTTLQQHLVDGRDMIIIRMPKDFPPFPQKLKFREPQREERICLVTTNFQTKSMSSMVSDTSCTFPSGDGIFWKHWIQTKDGQCGSPLVSTRDGFIVGIHSASNFTNTNNYFTSVPKNFMELLTNQEAQQWVSGWDLNADSVLWGGHKVFMVKPEEPFQPVKEATQL [R204D] | – | – | 0.0453 | 0.0523 | – | – | – | – | 0.0886
